Experimental findings from publication PMC6919601, “Identification of Plasmodium dipeptidyl aminopeptidase allosteric inhibitors by high throughput screening” (PLoS ONE, 2019) are described below.

Screen size: about 110,000 compounds; about 230 (0.21%) showed an effect of 50% or more. The list shows a part of the results.
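Further: 30 min substrate incubation versus DMSO and 10 µM JCP410 controls.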

Chain of DPAP1 (Q8IIJ9 whole entry, looked up): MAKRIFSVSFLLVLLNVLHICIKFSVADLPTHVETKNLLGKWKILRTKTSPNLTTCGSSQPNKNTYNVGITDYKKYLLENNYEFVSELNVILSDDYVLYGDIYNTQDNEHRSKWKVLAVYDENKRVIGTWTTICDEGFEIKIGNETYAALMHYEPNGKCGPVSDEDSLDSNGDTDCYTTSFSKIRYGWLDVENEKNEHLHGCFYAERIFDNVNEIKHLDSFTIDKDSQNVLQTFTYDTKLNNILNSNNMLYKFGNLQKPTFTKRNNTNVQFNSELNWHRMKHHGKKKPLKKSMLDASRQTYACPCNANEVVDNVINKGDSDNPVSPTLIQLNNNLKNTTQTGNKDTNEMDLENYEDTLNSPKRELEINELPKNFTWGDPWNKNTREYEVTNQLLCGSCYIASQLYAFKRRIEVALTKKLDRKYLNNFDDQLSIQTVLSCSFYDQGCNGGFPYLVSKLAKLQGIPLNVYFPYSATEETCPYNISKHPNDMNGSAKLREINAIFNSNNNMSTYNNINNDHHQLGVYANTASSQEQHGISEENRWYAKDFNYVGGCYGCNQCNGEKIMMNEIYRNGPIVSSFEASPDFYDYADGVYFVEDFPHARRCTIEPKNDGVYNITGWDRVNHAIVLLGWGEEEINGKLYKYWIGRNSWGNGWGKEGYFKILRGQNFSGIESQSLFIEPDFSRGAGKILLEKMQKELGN

This assay concerns the target DPAP1 (Plasmodium falciparum, UniProt Q8IIJ9). Description: primary screen, percent inhibition; read by cleavage of a fluorogenic dipeptide substrate; higher = more effect of the substance. Details: species or system P. falciparum D10 trophozoite lysates; single well.
For the molecule `O=C(CSCC(=O)Nc1ccccc1-c1ccccc1)Nc1ccc2ccccc2c1`, the “% Inhibition @ 10 uM” value was -3.26%. Take `Cc1c(C(=O)Nc2cc(C(F)(F)F)ccc2Cl)cccc1[N+](=O)[O-]`: the “% Inhibition @ 10 uM” value was -8.2%. In the case of `CC1=C(C(=O)OCCc2ccccc2)C(c2cccc3ccccc23)NC(=O)N1` (centres unmarked) it was 2.7%. In the case of `CCN(Cc1ccccc1)S(=O)(=O)c1ccc2nc(O)ccc2c1` it was -2.37%; in that of `CCOc1ccccc1NC(=O)C1=C(C)NC(=O)NC1c1cccc(OC)c1OC` (centres unmarked), 0.812%. Under `Cc1nc2ccc(S(=O)(=O)NC(C(=O)Nc3nc4ccc(Cl)cc4s3)C(C)C)cc2s1` (centres unmarked) stands 3.2%; under `O=C(c1cccc(COc2cccc3ccccc23)c1)N1CCCC1`, -3.49%. For the molecule `CCc1nonc1NC(=O)c1sc2ccccc2c1Cl`, the “% Inhibition @ 10 uM” value was 4.83%. In the case of `CCOc1cccc(C2Oc3ccccc3C3CC(c4cccs4)=NN32)c1O` (centres unmarked) it was 14.4%.

Turning to `COc1ccc(OCC(=O)N2CCN(C(=O)COc3ccccc3)CC2)cc1`, the “% Inhibition @ 10 uM” value was found to be 3.54%. In the case of `CCCC1CCC(c2ccc(OCC)cc2)CC1=O` (centres unmarked) it was 1.48%. In the case of `CC(CCc1ccccc1)NC(=O)C1CCN(C(=O)c2sccc2-n2cccc2)CC1` (centres unmarked) it was 3.3%; in that of `C=CC1CN2CCC1CC2[C@@H](O)c1cnc2ccc(OC)cc2c1` (some centres unmarked), 2.84%; in that of `OCCN(Cc1ccccc1)CC1CC2C=CC1C2` (centres unmarked), -2.34%. On to `CN(Cc1ccccc1)C1CC(=O)N(c2ccccc2)C1=O` (centres unmarked), for which the “% Inhibition @ 10 uM” value is on record as 4.65%. Under `O=C1S/C(=C/c2ccncc2)C(=O)N1Cc1ccccc1` stands 15.2%; under `N/C(=C\C(=O)c1ccccc1O)C(F)(F)F`, 3.39%. Under `Cc1ccc(-c2nnc3sc(-c4cnccn4)nn23)cc1` stands -4.02%; under `c1ccc(-c2cn(-c3nc(N4CCOCC4)nc(N4CCOCC4)n3)nn2)cc1`, 4.32%; under `COc1ccc(-c2ccccc2)cc1NC1CCCC(C)C1` (centres unmarked), 1.57%. For `O=C1C2CCCCC2C(=O)N1c1ccc(N2C(=O)C3C4C=CC(C4)C3C2=O)cc1` (centres unmarked), the “% Inhibition @ 10 uM” value is listed as -2.09%. Under `CCN(C(=O)CN1CCCCC1)C1(C)C(=O)c2ccccc2C1=O` stands 1.39%; under `COc1ccc(Cn2c(C(=O)O)c(CNCc3ccccc3Cl)c3ccc(OC)cc32)cc1`, 3.64%. Under `O=C(c1cc(-c2ccc(F)cc2)on1)N1CCc2ccccc2C1` stands -3.36%; under `O=C(CN1C(=O)C2C3C=CC(C3)C2C1=O)Nc1nc(-c2ccccc2)cs1` (centres unmarked), 2.56%; under `CCCCNC(=O)CSc1nc2nnc(C)c-2c(N)n1-c1ccccc1Cl`, -3.93%.

In the case of `COc1ccc(C(=O)CSc2ccc(-c3cccs3)nn2)cc1`, the “% Inhibition @ 10 uM” value is recorded as 0.304%.

Regarding `CCN1CC2(c3ccccc3)CN(CC)CC(c3ccccc3)(C1)C2=O`, the “% Inhibition @ 10 uM” value was -6.25%. Under `CCC(CC)C(=O)Nc1sc(C(=O)OC)c(C)c1C(=O)OC` stands -0.333%. Under `CCOC(=O)c1oc2c(c1C)C(=O)CC(C)(C)C2` stands 6.3%; under `COc1ccc(C(=O)c2oc3ccccc3c2NC(=O)COc2ccc(F)cc2)cc1`, 2.17%. With `Cc1ccc(CN(C(=O)NC2CCCC2)C2CCN(Cc3ccccc3)CC2)o1`, the “% Inhibition @ 10 uM” value is recorded as -3.32%. On to `O=C(Cn1c(C(F)(F)F)nc2ccccc21)c1ccc(OC(F)F)cc1`, for which the “% Inhibition @ 10 uM” value was -5.6%. For the molecule `CCOCCCNC(=O)CCCn1c(=O)c2cccn2c2cccnc21`, the “% Inhibition @ 10 uM” value is reported as 3.59%.

Turning to `CC(C)(C)c1c(O)nc(S)nc1O`, the “% Inhibition @ 10 uM” value is recorded as -4.26%. Regarding `COc1ccc(CNCCNC(=O)c2nonc2N)cc1OC`, the “% Inhibition @ 10 uM” value is given as -3.5%. Consider `O=C(NCCN1CCOCC1)C1CC(=O)N(C2CCCCC2)C1` (centres unmarked), for which the “% Inhibition @ 10 uM” value is -0.0542%. In the case of `COc1ccc(-n2c(C)cc(/C=C3/NC(=O)N(Cc4ccccc4F)C3=O)c2C)cc1` it was -0.0626%; in that of `O=C1OC(/C=C/c2ccc(Cl)cc2Cl)=NC/1=C/c1ccc2c(c1)OCO2`, -4.73%.

For the molecule `C[C@@H]1CC[C@@]2(NC1)OC1C[C@H]3C4CC=C5CC(O)CCC5(C)C4CCC3(C)C1[C@@H]2C` (some centres unmarked), the “% Inhibition @ 10 uM” value was 5.2%. In the case of `CCOc1cc(/C=C2/SC(=O)N(C(C)C)C2=O)ccc1OCC(=O)O`, the “% Inhibition @ 10 uM” value is recorded as 3.58%. In the case of `COc1ccc(-c2cc(N)n(S(=O)(=O)c3ccc(C(C)(C)C)cc3)n2)cc1OC` it was -2.88%; in that of `CN1C(=O)C(=Cc2cc(Cl)cc(Cl)c2OCc2ccccc2)C(=O)N(C)C1=O`, 18.2%.

Turning to `O=C1Nc2ccccc2SC1C1C(=O)Nc2ccccc21` (centres unmarked), the “% Inhibition @ 10 uM” value came to 3.57%. In the case of `CN1C(=O)NC(=O)/C(=C/c2ccc(Br)s2)C1=O` it was 0.587%. In the case of `O=C(Cc1ccccc1)Nc1ccc(-c2nc3ncccc3o2)cc1`, the “% Inhibition @ 10 uM” value stood at 4.84%.

Regarding `O=C1CC(c2cccc(Cl)c2)Sc2ccccc2N1` (centres unmarked), the “% Inhibition @ 10 uM” value is reported as -1.02%.

For `Cc1cccc(-c2nc3c4ccccc4nc(NCCCOC(C)C)n3n2)c1`, the “% Inhibition @ 10 uM” value is recorded as -4.21%.

For the molecule `CC(=O)Nc1ccc(CN2CC(C)OC(C)C2)cc1` (centres unmarked), the “% Inhibition @ 10 uM” value is reported as -1.41%.

In the case of `O=C(c1cc(-c2ccc(O)cc2)on1)N1CCCCCC1`, the “% Inhibition @ 10 uM” value is recorded as -4.07%.

As for `Nc1c(-c2nc(-c3ccc4c(c3)OCO4)cs2)c2ccccn2c1C(=O)c1ccc(F)cc1`, the “% Inhibition @ 10 uM” value is reported as -0.671%.

Take `Cc1nn(-c2ccc(F)cc2)c(O)c1/C=N/c1ccc(O)cc1`: the “% Inhibition @ 10 uM” value was -2.56%. Consider `Cc1cc(C)c(S(=O)(=O)NCC(=O)NCCO)c(C)c1`, for which the “% Inhibition @ 10 uM” value was 0.931%. Turning to `Brc1ccc(OCCCN2CCCC2)cc1`, the “% Inhibition @ 10 uM” value is reported as -4.3%. `COc1cc2c(cc1OC)C(COc1ccccc1OC)N(C(=O)Cc1cccs1)CC2` (centres unmarked): the “% Inhibition @ 10 uM” value is reported as 0.739%.

In the case of `O=C(Nc1cccc(C(F)(F)F)c1)c1ccc(Cl)cc1`, the “% Inhibition @ 10 uM” value is recorded as -5.57%. As for `CC(C(=O)NCCN1CCCCCC1)n1ncn2cccc2c1=O` (centres unmarked), the “% Inhibition @ 10 uM” value is given as -0.385%. In the case of `O=C(CSc1nc2ccccc2[nH]1)NCCCn1ccnc1` it was 2.99%.

In the case of `COc1cccc(-c2cc(C(=O)N3CCC(N4CCCCC4)CC3)[nH]n2)c1`, the “% Inhibition @ 10 uM” value stood at 0.536%. Under `Cn1cc(CCCC(=O)NCc2ccccc2Br)c2ccccc21` stands 2.07%; under `Nn1c(SCC(=O)Nc2nccs2)nnc1-c1ccncc1`, -6.28%; under `CCCCN(C)C(=O)c1cn(C2CCCC2)c(=O)c2c1c1ccccc1n2C`, -7.21%. `CCCCSc1nnc2c(=O)[nH]c(=O)[nH]c2n1`: the “% Inhibition @ 10 uM” value is recorded as -2.92%. For `CCC(C)(C)NC(=O)c1cc(S(=O)(=O)N2CCCCC2)c[nH]1`, the “% Inhibition @ 10 uM” value amounted to 4.92%. In the case of `Clc1ccc(OCCCCN2CCCC2)cc1` it was -8.01%.
